Measurements published in publication PMC11536954.
Results are given in words; binding and its absence hold for the method and conditions named. In cells and extracts the contact can be indirect. Some entries that bind do so weakly or less than the wild type. For some assays here: Where a sequence is shown, tags or fusion partners need not be part of it.

Amino acid sequences for entries named in this document (tags omitted).
UniProt P78527: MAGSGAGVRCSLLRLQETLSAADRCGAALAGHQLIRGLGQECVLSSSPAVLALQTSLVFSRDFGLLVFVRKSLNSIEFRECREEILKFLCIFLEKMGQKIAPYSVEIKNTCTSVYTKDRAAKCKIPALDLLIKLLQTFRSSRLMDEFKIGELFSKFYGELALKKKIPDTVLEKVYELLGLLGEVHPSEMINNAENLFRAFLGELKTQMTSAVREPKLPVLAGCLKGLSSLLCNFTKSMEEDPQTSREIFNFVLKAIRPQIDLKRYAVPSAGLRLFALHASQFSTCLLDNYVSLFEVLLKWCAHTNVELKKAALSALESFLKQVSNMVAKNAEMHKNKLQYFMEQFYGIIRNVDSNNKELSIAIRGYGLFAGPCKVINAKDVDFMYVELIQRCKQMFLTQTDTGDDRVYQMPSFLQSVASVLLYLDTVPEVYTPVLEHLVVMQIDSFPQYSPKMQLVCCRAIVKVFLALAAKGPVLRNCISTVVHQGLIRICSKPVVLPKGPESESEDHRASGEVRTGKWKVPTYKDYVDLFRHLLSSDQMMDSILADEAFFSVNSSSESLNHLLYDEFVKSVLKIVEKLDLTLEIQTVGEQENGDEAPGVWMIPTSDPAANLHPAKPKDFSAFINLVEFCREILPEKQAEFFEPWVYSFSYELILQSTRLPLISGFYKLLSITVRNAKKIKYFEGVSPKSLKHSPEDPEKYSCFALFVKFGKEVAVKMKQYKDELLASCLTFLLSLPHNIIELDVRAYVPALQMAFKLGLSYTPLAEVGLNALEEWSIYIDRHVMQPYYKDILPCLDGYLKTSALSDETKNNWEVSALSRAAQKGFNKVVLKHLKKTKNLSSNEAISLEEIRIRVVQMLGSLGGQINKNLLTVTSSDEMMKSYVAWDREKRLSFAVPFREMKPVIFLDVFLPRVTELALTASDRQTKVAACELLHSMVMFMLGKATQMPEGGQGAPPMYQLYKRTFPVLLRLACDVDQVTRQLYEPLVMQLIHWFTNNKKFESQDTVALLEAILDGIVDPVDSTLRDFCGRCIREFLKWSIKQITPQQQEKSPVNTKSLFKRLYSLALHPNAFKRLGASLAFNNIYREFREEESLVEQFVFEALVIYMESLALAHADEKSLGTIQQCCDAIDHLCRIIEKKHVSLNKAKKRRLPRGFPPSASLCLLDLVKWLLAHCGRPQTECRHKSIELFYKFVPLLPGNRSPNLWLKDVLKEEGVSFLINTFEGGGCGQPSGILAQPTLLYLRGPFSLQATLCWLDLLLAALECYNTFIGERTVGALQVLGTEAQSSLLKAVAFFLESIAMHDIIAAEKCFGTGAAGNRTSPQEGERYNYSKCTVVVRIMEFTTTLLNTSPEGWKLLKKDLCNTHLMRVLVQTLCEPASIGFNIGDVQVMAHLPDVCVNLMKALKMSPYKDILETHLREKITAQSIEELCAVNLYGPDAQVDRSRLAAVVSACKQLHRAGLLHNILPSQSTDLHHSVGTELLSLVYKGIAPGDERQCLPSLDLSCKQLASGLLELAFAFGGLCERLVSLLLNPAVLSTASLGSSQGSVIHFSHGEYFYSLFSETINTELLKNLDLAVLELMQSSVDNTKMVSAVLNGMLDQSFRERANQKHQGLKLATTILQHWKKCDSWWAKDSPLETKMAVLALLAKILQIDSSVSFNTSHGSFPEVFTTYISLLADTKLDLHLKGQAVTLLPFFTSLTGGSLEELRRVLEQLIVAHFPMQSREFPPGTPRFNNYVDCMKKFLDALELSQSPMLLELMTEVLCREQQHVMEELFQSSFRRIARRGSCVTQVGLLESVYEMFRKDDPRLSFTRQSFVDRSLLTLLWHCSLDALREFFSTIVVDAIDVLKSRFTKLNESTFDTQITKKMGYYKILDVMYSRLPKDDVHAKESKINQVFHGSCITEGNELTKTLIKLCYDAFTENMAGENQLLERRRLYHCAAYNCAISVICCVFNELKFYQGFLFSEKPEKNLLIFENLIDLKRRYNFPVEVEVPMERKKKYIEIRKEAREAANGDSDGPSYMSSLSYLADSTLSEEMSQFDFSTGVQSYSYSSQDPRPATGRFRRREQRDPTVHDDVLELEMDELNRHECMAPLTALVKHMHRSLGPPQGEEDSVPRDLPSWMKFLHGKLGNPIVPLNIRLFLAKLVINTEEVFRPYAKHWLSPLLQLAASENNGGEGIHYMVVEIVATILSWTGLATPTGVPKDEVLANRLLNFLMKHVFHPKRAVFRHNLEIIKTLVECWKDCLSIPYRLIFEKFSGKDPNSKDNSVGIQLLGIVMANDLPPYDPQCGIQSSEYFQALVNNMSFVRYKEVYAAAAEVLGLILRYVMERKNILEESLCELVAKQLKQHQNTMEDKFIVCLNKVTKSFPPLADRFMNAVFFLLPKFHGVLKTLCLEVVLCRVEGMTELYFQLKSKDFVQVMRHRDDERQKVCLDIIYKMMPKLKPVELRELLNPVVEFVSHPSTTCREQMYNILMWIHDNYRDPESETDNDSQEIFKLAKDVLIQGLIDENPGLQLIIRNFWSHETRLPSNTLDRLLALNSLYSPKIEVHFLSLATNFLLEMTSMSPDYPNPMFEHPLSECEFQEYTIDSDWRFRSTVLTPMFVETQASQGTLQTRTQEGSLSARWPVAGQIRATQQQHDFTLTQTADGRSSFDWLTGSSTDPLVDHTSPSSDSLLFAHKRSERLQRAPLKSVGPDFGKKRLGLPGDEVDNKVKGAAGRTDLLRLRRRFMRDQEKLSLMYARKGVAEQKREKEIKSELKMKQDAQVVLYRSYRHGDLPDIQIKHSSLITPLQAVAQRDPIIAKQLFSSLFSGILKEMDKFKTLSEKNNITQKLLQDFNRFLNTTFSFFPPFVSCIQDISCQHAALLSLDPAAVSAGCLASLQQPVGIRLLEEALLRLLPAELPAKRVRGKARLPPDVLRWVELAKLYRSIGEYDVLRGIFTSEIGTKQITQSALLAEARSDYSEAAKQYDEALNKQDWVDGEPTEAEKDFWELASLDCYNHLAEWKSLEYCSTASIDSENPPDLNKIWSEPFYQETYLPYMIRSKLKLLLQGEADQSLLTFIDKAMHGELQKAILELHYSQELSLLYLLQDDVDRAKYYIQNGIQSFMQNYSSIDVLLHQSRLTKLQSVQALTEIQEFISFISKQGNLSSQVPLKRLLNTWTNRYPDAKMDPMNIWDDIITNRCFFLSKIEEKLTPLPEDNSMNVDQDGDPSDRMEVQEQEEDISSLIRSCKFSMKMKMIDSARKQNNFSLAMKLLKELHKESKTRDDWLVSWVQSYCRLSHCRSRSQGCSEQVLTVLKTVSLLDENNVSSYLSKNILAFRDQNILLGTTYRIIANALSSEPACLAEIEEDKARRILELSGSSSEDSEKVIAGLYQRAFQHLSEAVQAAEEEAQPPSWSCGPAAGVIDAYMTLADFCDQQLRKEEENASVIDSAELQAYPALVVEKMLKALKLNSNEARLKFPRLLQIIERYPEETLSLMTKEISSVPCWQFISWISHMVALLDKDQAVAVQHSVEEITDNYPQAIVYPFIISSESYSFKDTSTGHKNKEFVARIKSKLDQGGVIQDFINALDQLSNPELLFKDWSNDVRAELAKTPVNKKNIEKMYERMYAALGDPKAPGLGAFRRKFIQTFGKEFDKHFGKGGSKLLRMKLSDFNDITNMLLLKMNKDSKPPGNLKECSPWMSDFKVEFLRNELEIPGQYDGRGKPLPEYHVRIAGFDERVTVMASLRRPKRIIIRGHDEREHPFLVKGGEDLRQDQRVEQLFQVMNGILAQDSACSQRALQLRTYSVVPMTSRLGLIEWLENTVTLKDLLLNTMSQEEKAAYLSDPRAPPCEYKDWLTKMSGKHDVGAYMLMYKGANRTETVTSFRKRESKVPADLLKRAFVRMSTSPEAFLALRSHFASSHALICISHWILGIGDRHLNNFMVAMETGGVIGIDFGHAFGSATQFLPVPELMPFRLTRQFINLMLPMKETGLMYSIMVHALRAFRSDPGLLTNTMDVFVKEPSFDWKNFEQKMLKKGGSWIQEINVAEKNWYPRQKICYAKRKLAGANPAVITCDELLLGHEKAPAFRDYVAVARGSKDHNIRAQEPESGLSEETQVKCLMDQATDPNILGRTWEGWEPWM
UniProt P13010: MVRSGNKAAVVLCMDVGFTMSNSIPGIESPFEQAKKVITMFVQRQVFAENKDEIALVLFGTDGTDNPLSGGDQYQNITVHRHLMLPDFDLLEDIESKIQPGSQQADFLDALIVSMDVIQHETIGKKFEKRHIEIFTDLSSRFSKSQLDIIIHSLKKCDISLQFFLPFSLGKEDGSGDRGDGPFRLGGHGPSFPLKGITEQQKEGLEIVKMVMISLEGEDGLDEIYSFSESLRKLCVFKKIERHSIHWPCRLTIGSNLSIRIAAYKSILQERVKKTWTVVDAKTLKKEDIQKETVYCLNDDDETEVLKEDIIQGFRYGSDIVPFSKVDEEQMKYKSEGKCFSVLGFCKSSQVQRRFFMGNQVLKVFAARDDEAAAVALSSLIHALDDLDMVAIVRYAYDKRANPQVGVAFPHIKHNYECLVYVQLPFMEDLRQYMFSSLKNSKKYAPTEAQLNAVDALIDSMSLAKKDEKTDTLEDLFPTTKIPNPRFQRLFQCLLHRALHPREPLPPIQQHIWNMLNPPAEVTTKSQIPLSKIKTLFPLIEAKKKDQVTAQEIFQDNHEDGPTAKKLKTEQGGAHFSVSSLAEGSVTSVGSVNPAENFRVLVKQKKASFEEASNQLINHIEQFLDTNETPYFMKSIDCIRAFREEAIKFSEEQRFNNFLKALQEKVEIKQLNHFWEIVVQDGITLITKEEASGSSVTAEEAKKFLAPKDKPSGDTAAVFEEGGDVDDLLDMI
UniProt Q92878: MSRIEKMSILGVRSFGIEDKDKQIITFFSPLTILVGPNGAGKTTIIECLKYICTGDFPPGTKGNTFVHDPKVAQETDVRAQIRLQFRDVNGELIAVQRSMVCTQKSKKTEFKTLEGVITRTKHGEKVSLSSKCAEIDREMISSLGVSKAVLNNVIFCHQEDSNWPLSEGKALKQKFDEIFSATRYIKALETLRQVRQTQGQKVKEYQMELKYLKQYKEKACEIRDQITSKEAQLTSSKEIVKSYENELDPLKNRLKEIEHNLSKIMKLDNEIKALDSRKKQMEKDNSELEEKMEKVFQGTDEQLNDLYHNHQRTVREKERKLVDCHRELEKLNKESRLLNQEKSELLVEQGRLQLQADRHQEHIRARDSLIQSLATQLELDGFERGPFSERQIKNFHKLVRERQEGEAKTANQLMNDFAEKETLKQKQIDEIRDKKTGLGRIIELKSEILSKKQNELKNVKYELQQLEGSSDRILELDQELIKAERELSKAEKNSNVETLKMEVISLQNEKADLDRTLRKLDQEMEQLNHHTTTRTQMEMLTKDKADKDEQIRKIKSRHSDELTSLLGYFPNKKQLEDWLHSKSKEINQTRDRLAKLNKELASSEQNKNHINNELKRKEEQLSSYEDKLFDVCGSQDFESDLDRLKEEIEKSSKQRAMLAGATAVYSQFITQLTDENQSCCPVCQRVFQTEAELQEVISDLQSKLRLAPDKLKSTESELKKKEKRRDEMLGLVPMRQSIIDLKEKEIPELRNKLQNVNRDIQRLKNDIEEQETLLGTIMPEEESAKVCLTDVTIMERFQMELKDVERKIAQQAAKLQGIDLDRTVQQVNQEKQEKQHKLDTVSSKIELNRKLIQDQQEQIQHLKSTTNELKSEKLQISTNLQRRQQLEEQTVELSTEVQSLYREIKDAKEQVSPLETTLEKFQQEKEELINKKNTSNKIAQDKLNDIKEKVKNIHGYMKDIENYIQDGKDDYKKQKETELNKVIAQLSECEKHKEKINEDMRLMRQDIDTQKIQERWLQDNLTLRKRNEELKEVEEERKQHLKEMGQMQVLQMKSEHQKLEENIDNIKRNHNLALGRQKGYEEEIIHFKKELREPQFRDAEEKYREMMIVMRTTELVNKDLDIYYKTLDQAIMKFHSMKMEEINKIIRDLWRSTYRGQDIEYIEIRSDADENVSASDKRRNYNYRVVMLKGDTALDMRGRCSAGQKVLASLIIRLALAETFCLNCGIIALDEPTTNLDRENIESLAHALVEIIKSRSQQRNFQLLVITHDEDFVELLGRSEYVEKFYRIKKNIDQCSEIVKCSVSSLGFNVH

Key:
[1] = target: T1, endogenous PORCN (Porcupine) of HT1080 PORCN-WT cells (human (endogenous in HT1080)) (UniProt Q9H237); test: co-IP; endogenous proteins, HT1080 PORCN-WT or NLS-KO cells; precipitated with anti-PORCN antibody (and, in turn, anti-Ku70, anti-Ku80 or anti-DNA-PKcs with a blot for PORCN)
T1 sequence: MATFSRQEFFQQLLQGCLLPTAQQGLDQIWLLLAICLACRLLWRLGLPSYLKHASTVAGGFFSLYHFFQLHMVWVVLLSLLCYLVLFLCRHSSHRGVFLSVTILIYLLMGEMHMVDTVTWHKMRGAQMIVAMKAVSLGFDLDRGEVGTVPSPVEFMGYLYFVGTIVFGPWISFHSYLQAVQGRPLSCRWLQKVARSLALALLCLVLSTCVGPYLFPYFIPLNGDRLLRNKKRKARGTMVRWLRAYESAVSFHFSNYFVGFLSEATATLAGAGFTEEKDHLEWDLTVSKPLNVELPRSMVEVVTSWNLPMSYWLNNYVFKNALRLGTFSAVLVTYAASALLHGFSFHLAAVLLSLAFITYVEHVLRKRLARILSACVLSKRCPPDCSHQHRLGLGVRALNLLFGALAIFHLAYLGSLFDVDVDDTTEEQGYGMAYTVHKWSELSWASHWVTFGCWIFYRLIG

[2] = target: T2, endogenous PORCN ΔNLS of HT1080 NLS-KO cells (human (endogenous in HT1080)) (UniProt Q9H237); test: as above
T2 sequence: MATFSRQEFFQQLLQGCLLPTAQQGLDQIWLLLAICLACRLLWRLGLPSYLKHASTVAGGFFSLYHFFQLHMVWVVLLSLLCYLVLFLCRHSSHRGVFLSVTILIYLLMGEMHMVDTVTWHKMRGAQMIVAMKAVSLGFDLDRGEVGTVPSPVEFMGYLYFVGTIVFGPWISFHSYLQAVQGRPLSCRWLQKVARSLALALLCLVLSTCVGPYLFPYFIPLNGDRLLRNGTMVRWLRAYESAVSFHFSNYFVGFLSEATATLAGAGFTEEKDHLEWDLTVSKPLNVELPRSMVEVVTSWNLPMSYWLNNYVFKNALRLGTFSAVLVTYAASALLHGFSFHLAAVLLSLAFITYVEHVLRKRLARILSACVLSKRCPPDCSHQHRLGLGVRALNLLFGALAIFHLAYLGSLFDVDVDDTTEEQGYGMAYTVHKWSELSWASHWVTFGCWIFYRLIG

[3] = target: T3, GFP-tagged PORCN-ΔNLS (UniProt Q9H237); test: co-IP; HT1080 transiently transfected with GFP-tagged PORCN-WT or PORCN-ΔNLS, 48 h; whole cell lysates precipitated with anti-GFP antibody; blots for Ku70, Ku80, DNA-PKcs, Rad50
T3 sequence: T2 sequence

[4] = target: T4, GFP-tagged PORCN-WT (Porcupine) (UniProt Q9H237); test: as above
T4 sequence: T1 sequence

Row | Substance | binding [1] | binding [2] | binding [3] | binding [4]
1 | DNA-dependent protein kinase catalytic subunit (DNA-PKcs), endogenous (from UniProt P78527 1-4128) (enzyme) | binds | no binding | no binding | binds
2 | Ku70 (XRCC6), endogenous (from UniProt P12956 1-609) | binds | no binding | no binding | binds
3 | Ku80 (XRCC5), endogenous (from UniProt P13010 1-732) | binds | no binding | no binding | binds
4 | Rad50, endogenous (from UniProt Q92878 1-1312) |  |  | no binding | no binding
